Laboratory results taken from PubChem BioAssay (NCI).
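How tested: cells in 96-well plates exposed to compound for 48 hours at five concentrations. The concentration for 50% growth inhibition is given as GI50.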 Not every entry of the source has a single result; some have several. Only these are listed. There may be further records. For part of these data: A record mostly stands for its own series of concentrations, which the source does not state; a value can be the end of its range. For part of these data: Values given together repeat one measurement across runs, samples, wells, individuals or studies. Brackets tell where a record comes from. Letters hold for one entry only.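 TGI: total growth inhibition.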

How the values were obtained:
Assay in all cases: growth of human tumour cells (NCI), 48 h
[1] = test system: NCI/ADR-RES ovarian
[2] = test system: SN12C renal
[3] = test system: DU-145 prostate
[4] = test system: SR leukemia
[5] = test system: MDA-N
[6] = test system: T-47D breast
[7] = test system: U251 CNS
[8] = test system: K-562 leukemia
[9] = test system: A549 NSCLC
[10] = test system: HS 578T breast
[11] = test system: SNB-75 CNS
[12] = test system: SW-620 colon
[13] = test system: NCI-H522 lung
[14] = test system: SK-MEL-5 melanoma
[15] = test system: SK-OV-3 ovarian
[16] = test system: HL-60(TB) leukemia
[17] = test system: TK-10 renal
[18] = test system: OVCAR-8 ovarian
[19] = test system: CAKI-1 renal
[20] = test system: RXF 393 renal
[21] = test system: MCF7 breast
[22] = test system: NCI-H226 lung
[23] = test system: HOP-92 NSCLC
[24] = test system: SK-MEL-28 melanoma
[25] = test system: COLO 205 colon
[26] = test system: SF-539 CNS
[27] = test system: MDA-MB-231 breast
[28] = test system: CCRF-CEM leukemia
[29] = test system: M14 melanoma
[30] = test system: KM12 colon
[31] = test system: SF-295 CNS
[32] = test system: OVCAR-3 ovarian

Question: For `CCCCCCCCCC[C@@H](O)[C@H]1CC[C@H]([C@H]2CC[C@H]([C@H](O)CCCCCCCCCC[C@@H]3CC(CC(C)=O)C(=O)O3)O2)O1` (some centres not stated), which TGI [1] is on record?
Answer: 4.23 µM and > 50 µM

Question: What does the source list for `CCc1c2c(nc3cc4c(cc13)OCO4)-c1cc3c(c(=O)n1C2)COC(=O)[C@]3(O)CC`?
Answer: GI50 [2]: < 1 nM and 12.7 nM; GI50 [3]: < 1 nM and 16.5 nM; TGI [4]: 14.9 nM and > 100 µM; GI50 [5]: 60.2 nM and 9.06 µM; TGI [6]: 5.99 nM and > 100 µM; GI50 [7]: < 1 nM and 14.1 nM; TGI [7]: 63.1 nM and > 100 µM; GI50 [8]: < 1 nM and 24.3 nM; GI50 [9]: < 1 nM and 11.8 nM; GI50 [10]: 9.06 µM and > 100 µM; GI50 [1]: < 1 nM and 12 nM; GI50 [11]: < 1 nM and 32.9 nM; TGI [11]: 197 nM and > 100 µM; GI50 [12]: 2.19 nM and 36.4 nM; GI50 [13]: 3.53 nM and 81.3 nM; TGI [13]: 9.41 µM and > 100 µM; GI50 [14]: < 1 nM and 11.4 nM; GI50 [15]: 2.95 nM and 32.8 nM; TGI [15]: 6.52 µM and > 100 µM; TGI [16]: 1.73 nM and > 100 µM; TGI [17]: 6.19 µM and > 100 µM; GI50 [18]: 2.27 nM and 49.9 nM; TGI [18]: 250 nM and > 100 µM; TGI [19]: 1.48 µM and > 100 µM; GI50 [20]: 4.32 nM and 102 nM; TGI [21]: 911 nM and > 100 µM

Question: Which TGI [22] does the source give for `CCCCCCCCCCCCC(=O)OC(c1cnco1)c1nc(C(O)CC(O)C(O)C(C)O)co1` (configuration not stated) here?
Answer: 9.77 µM and > 100 µM

Question: Which results are given for `CC(=O)Nc1cccc(-n2c(=O)n(C3CC3)c(=O)c3c(Nc4ccc(I)cc4F)n(C)c(=O)c(C)c32)c1`?
Answer: TGI [23]: < 10 nM [sample A, mean of 2 tests] and 138 nM [sample B, mean of 2 tests]; GI50 [14]: < 13.3 nM [sample A, mean of 2 tests] and 276 nM [sample B, mean of 2 tests]; TGI [24]: 21 µM [sample A, mean of 2 tests] and 31.2 nM [sample B, mean of 2 tests]; TGI [25]: 18.7 µM [sample A, mean of 2 tests] and 381 nM [sample B, mean of 2 tests]

Question: Which results are given for `COc1ccc2cc1Oc1ccc(cc1)C[C@H]1c3cc(c(OC)cc3CCN1C)Oc1c(OC)c(OC)cc3c1[C@H](C2)N(C)CC3`?
Answer: TGI [26]: 10.6 µM, 4.05 µM [sample A] and 53.9 µM [sample B]; TGI [4]: 15.8 µM, 5.09 µM [sample A] and 93 µM [sample B]; TGI [27]: 13 µM, 5.34 µM [sample A] and 60.3 µM [sample B]; TGI [28]: 14.6 µM, 18.6 nM [sample A] and > 100 µM [sample B]; TGI [29]: 1.62 µM, 3.36 µM [sample A] and 69.7 µM [sample B]

Question: `O=c1cc(-c2cccc(F)c2)[nH]c2cc3c(cc12)OCO3` was tested. Which TGI [14] did it give?
Answer: 360 nM and 9.66 µM

Question: What about the TGI [30] of the same compound?
Answer: 75 µM and 2.38 µM

Question: What about the TGI [16] of the same compound?
Answer: 75 µM and 370 nM

Question: What about the TGI [31] of the same compound?
Answer: 390 nM and 7.21 µM

Question: What about the TGI [32] of the same compound?
Answer: 75 µM and 70.8 nM
